{"source": "the supplement of paper PMC8183993", "note": "Values joined by “and” are separate entries in the source; they are usually repeats but may differ in a detail not shown here. Equal values may be shown once. Where a name gives a salt, the structure may show the parent alone. ± gives the standard deviation of the averaged measurements. The full ranking holds about 3,200 compounds; the median of “nuclei count (viability) relative to DMSO” is about 99, and the lowest 2% start at about 16. This is one part of the list."}
{"test_system": "U2OS", "experiment": "nuclei count (viability) relative to DMSO (% of DMSO); higher = more viable cells", "conditions": "10 µM; 24 h", "procedure": "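Primary image-based screen in U2OS cells: compounds at 10 uM for 24 h, then a 1 h o-propargyl-puromycin (OPP) pulse, click labelling, and high-throughput microscopy. Mean cytoplasmic OPP intensity and nuclei count were normalised to DMSO wells within each plate (DMSO = 100) and averaged over triplicate plates.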"}
{"molecule": "CCCCc1ccc2[nH]c(NC(=O)OC)nc2c1", "note": "[Parbendazole]", "nuclei count": 18.3}
{"molecule": "COc1cc2ncnc(Nc3cccc(Cl)c3)c2cc1OC", "note": "[AG-1478 (Tyrphostin AG-1478)]", "nuclei count": 95.9}
{"molecule": "O=c1oc2cc(O)ccc2s1", "note": "[Tioxolone]", "nuclei count": 97.8}
{"molecule": "CCc1cccc(CC)c1NC(=O)CN(CC(=O)O)CC(=O)O", "note": "[Etifenin]", "nuclei count": 107}
{"molecule": "CN/C(=N\\CCSCc1nc[nH]c1C)NC#N", "note": "[Cimetidine (Tagamet)]", "nuclei count": 98.8}
{"molecule": "CN/C(=N\\CCSCc1nc[nH]c1C)NC#N", "note": "[Cimetidine]", "nuclei count": "105 ± 5.7"}
{"molecule": "COc1ccc(C2=N[C@@H](c3ccc(Cl)cc3)[C@@H](c3ccc(Cl)cc3)N2C(=O)N2CCNC(=O)C2)c(OC(C)C)c1", "note": "[Nutlin-3]", "nuclei count": 73.8}
{"molecule": "CC1CCN=C(N)S1", "note": "(centres undefined) [AMT hydrochloride]", "nuclei count": 114}
{"molecule": "N#C/C(=C\\c1ccc(O)c(O)c1)C(=O)NCCCc1ccccc1", "nuclei count": 100}
{"molecule": "C=C1c2cccc(O)c2C(O)=C2C(=O)[C@]3(O)C(O)=C(C(N)=O)C(=O)[C@@H](N(C)C)[C@@H]3[C@@H](O)[C@H]12", "note": "[Methacycline HCl (Physiomycine)]", "nuclei count": 95.9}
{"molecule": "O=C(O)c1cc(/N=N/c2ccc(S(=O)(=O)Nc3ccccn3)cc2)ccc1O", "note": "[Sulfasalazine]", "nuclei count": 110}
{"molecule": "NC(=O)c1ccc(I)c([N+](=O)[O-])c1", "note": "[Iniparib (BSI-201)]", "nuclei count": 95.5}
{"molecule": "O=C(O)c1ccccc1Nc1cccc2c1C(=O)c1cccc(Nc3ccccc3C(=O)O)c1C2=O", "nuclei count": 91.8}
{"molecule": "CC1=C(/C=C/C(C)=C/C=C/C(C)=C/CO)C(C)(C)CCC1", "note": "[all-trans-Retinol]", "nuclei count": 103}
{"molecule": "OCCn1cc(-c2cnc3nnn(Cc4ccc5ncccc5c4)c3n2)cn1", "nuclei count": 110}
{"molecule": "Cc1ncc([N+](=O)[O-])n1CC(C)O", "note": "(centres undefined) [Secnidazole]", "nuclei count": 90.2}
{"molecule": "C/C=C(/C(=C/C)c1ccc(O)cc1)c1ccc(O)cc1", "note": "[Dienestrol]", "nuclei count": 101}
{"molecule": "O=C(O)c1ccccc1OP(=O)(O)O", "note": "[Fosfosal]", "nuclei count": 96.9}
{"molecule": "CC(C)C[C@H](NC(=O)N1CCCCCC1)C(=O)N[C@H](Cc1cn(C)c2ccccc12)C(=O)N[C@H](Cc1ccccn1)C(=O)O", "nuclei count": 100}
{"molecule": "CCCCn1c(=O)c2[nH]c(C34CC5CC(CC3C5)C4)nc2n(CCCO)c1=O", "nuclei count": 110}
{"molecule": "CC1=C(/C=C/C(C)=C/C=C/C(C)=C\\CO)C(C)(C)CCC1", "note": "[13-cis-Retinol]", "nuclei count": 85}
{"molecule": "Nc1cc(N2CCCCC2)nc(N)[n+]1[O-]", "note": "[Minoxidil]", "nuclei count": "99.8 ± 10"}
{"molecule": "CS(=O)(=O)Nc1c(O)ccc2c1CCCC2C1=NCCN1", "note": "(centres undefined)", "nuclei count": 94.1}
{"molecule": "N#Cc1cc(CN2CCC(Nc3ncnc4sc(Cl)cc34)CC2)ccc1F", "nuclei count": 103}
{"molecule": "COc1ccc2cc([C@H](C)C(=O)O)ccc2c1", "note": "[Naproxen sodium]", "nuclei count": 109}
{"molecule": "COc1ccc2cc([C@H](C)C(=O)O)ccc2c1", "note": "[Naproxen (Aleve)]", "nuclei count": 92.8}
{"molecule": "COc1ccc2cc([C@H](C)C(=O)O)ccc2c1", "note": "[Naproxen]", "nuclei count": 103}
{"molecule": "CC(C)C[C@H](NC(=O)[C@H](CCC(=O)O)NC(=O)CNC(=O)c1ccc(/C=C/C(=O)O)cc1)C(N)=O", "nuclei count": 97.5}
{"molecule": "C[C@]12CCC(=O)C=C1[C@@H]1C[C@@H]1[C@H]1[C@@H]3[C@@H]4C[C@@H]4[C@@]4(CCC(=O)O4)[C@@]3(C)CC[C@@H]12", "note": "[Drospirenone]", "nuclei count": 111}
{"molecule": "O=C(O)c1cc(=O)[nH]c(=O)[nH]1", "note": "[Orotic acid (6-Carboxyuracil)]", "nuclei count": 108}
{"molecule": "O=c1n(CCCN2CCN(c3cccc(Cl)c3)CC2)nc2ccccn12", "note": "[Trazodone hydrochloride]", "nuclei count": 107}
{"molecule": "CC1(C)S[C@@H]2[C@H](NC(=O)[C@H](N)c3ccccc3)C(=O)N2[C@H]1C(=O)O", "note": "[Ampicillin trihydrate]", "nuclei count": 102}
{"molecule": "CC1(C)S[C@@H]2[C@H](NC(=O)[C@H](N)c3ccccc3)C(=O)N2[C@H]1C(=O)O", "note": "[Ampicillin sodium]", "nuclei count": 104}
{"molecule": "CCOc1cc(C(=O)Nc2ccc(Cl)c(-c3nc4ccccc4[nH]3)c2)cc(OCC)c1OCC", "nuclei count": 79.2}
{"molecule": "CN(C)C(=O)n1nnnc1Cc1ccc(-c2ccccc2)cc1", "nuclei count": 20.7}
{"molecule": "C=C[C@H]1CN2CC[C@H]1C[C@H]2[C@H](O)c1ccnc2ccc(OC)cc12", "note": "[Quinine HCl 2H2O]", "nuclei count": 99.5}
{"molecule": "CCC(NC(C)C)C(O)c1ccc(O)c2[nH]c(=O)ccc12", "note": "(centres undefined) [Procaterol hydrochloride]", "nuclei count": 91.8}
{"molecule": "O=C(O)c1ccc2cc(-c3ccc(O)c(C45CC6CC(CC(C6)C4)C5)c3)ccc2c1", "nuclei count": 43.7}
{"molecule": "O=C(NC[C@H](O)CO)c1ccncc1Nc1ccc(I)cc1F", "nuclei count": 104}
{"molecule": "Cc1ccc(C(=O)Nc2ccc(CN3CCN(C)CC3)c(C(F)(F)F)c2)cc1C#Cc1cnc2[nH]ncc2c1", "note": "[GZD824 Dimesylate]", "nuclei count": 14.1}
{"molecule": "Oc1ccc(-c2nc(-c3ccc(F)cc3)c(-c3ccncc3)[nH]2)cc1", "nuclei count": "75.4 and 91.6"}
{"molecule": "O=C(Nc1ccc(S(=O)(=O)Nc2ccccc2Cl)c(Cl)c1)c1ccccn1", "nuclei count": 93.1}
{"molecule": "NC(=O)c1cnccn1", "note": "[Pyrazinamide]", "nuclei count": 111}
{"molecule": "CO[C@@H]1[C@H](OC(=O)/C=C/C=C/C=C/C=C/C(=O)O)CC[C@]2(CO2)[C@H]1[C@@]1(C)O[C@@H]1CC=C(C)C", "note": "[Fumagillin]", "nuclei count": 89.1}
{"molecule": "Nc1nc(N)c(N=O)c(OCC2CCCCC2)n1", "nuclei count": "99.9 ± 0.56"}
{"molecule": "C#Cc1cccc(Nc2ncnc3cc(OCCOC)c(OCCO)cc23)c1", "note": "[OSI-420 (Desmethyl Erlotinib)]", "nuclei count": 90.3}
{"molecule": "Cn1cnc2c(F)c(Nc3ccc(Br)cc3F)c(C(=O)NOCCO)cc21", "nuclei count": 89.3}
{"molecule": "N[C@@H](Cn1ccc(=O)n(Cc2ccccc2C(=O)O)c1=O)C(=O)O", "nuclei count": "99.6 and 101"}
{"molecule": "CCCCC[C@H](O)/C=C/[C@H]1[C@H](O)CC(=O)[C@@H]1C/C=C\\CCCC(=O)O", "note": "[Prostaglandin E2]", "nuclei count": 104}
{"molecule": "O=C1[C@@H]2[C@H]3CC[C@H](C3)[C@@H]2C(=O)N1C[C@@H]1CCCC[C@H]1CN1CCN(c2nsc3ccccc23)CC1", "note": "[Lurasidone HCl]", "nuclei count": 102}
{"molecule": "N/C(=N\\C(=O)c1nc(Cl)c(N)nc1N)NCc1ccccc1", "note": "[Benzamil hydrochloride]", "nuclei count": 98.7}
{"molecule": "N/C(=N\\C(=O)c1nc(Cl)c(N)nc1N)NCc1ccccc1", "note": "[Benzamil]", "nuclei count": 102}
{"molecule": "O=C(CCNNC(=O)c1ccncc1)NCc1ccccc1", "note": "[Nialamide]", "nuclei count": 109}
{"molecule": "CCCn1c(=O)c2[nH]c(C3CCCC3)nc2n(CCC)c1=O", "nuclei count": 73.8}
{"molecule": "Nc1ccc(-c2ccc3ncc4ccc(=O)n(-c5cccc(C(F)(F)F)c5)c4c3c2)cn1", "note": "[Torin 2]", "nuclei count": "27.7 ± 1.8"}
{"molecule": "Cc1nc2ccccn2c(=O)c1CCN1CCC(C(=O)c2ccc(F)cc2)CC1", "note": "[Pirenperone]", "nuclei count": 118}
{"molecule": "COc1cccc2c1C(=O)c1c(O)c3c(c(O)c1C2=O)C[C@@](O)(C(=O)CO)C[C@@H]3O[C@H]1C[C@H](N)[C@@H](O)[C@H](C)O1", "note": "[Epirubicin HCl]", "nuclei count": 13.2}
{"molecule": "CCCN(CCC)CCc1cccc2c1CC(=O)N2", "note": "[Ropinirole HCl]", "nuclei count": 106}
{"molecule": "CC(=O)O[C@H]1C(=O)[C@@]2(C)[C@H]([C@H](OC(=O)c3ccccc3)[C@]3(O)C[C@H](OC(=O)[C@H](O)[C@@H](NC(=O)c4ccccc4)c4ccccc4)C(C)=C1C3(C)C)[C@]1(OC(C)=O)CO[C@@H]1C[C@@H]2O", "note": "[Taxol]", "nuclei count": 40.6}
{"molecule": "CC(=O)O[C@H]1C(=O)[C@@]2(C)[C@H]([C@H](OC(=O)c3ccccc3)[C@]3(O)C[C@H](OC(=O)[C@H](O)[C@@H](NC(=O)c4ccccc4)c4ccccc4)C(C)=C1C3(C)C)[C@]1(OC(C)=O)CO[C@@H]1C[C@@H]2O", "note": "[Paclitaxel (Taxol)]", "nuclei count": 42.1}
{"molecule": "CC(=O)O[C@H]1C(=O)[C@@]2(C)[C@H]([C@H](OC(=O)c3ccccc3)[C@]3(O)C[C@H](OC(=O)[C@H](O)[C@@H](NC(=O)c4ccccc4)c4ccccc4)C(C)=C1C3(C)C)[C@]1(OC(C)=O)CO[C@@H]1C[C@@H]2O", "note": "[Paclitaxel]", "nuclei count": 41.5}
{"molecule": "NC(=O)c1cccc(-c2cccc(OC(=O)NC3CCCCC3)c2)c1", "nuclei count": 103}
{"molecule": "NCCCCCc1c[nH]cn1", "note": "[Impentamine dihydrobromide]", "nuclei count": 90.5}
{"molecule": "NC(=O)c1cnc(N[C@@H]2CCCC[C@@H]2N)nc1Nc1cccc(-n2nccn2)c1", "nuclei count": "54.8 ± 4.5"}
{"molecule": "NS(=O)(=O)c1cc2c(cc1Cl)NC(C(Cl)Cl)NS2(=O)=O", "note": "(centres undefined) [Trichlormethiazide]", "nuclei count": 101}
{"molecule": "CN[C@@H]1[C@H](O)[C@H](NC)[C@H]2O[C@@]3(O)C(=O)C[C@@H](C)O[C@H]3O[C@@H]2[C@H]1O", "note": "[Spectinomycin dihydrochloride]", "nuclei count": 109}
{"molecule": "N#Cc1ccc(C2CCCc3cncn32)cc1", "note": "(centres undefined) [Fadrozole hydrochloride]", "nuclei count": 107}
{"molecule": "COC(=O)C1=CO[C@@H](O[C@@H]2O[C@H](CO)[C@@H](O)[C@H](O)[C@H]2O)[C@@H]2C(CO)=CC[C@H]12", "note": "[Geniposide]", "nuclei count": 103}
{"molecule": "Cc1onc(-c2ccccc2Cl)c1C(=O)N[C@@H]1C(=O)N2[C@@H]1SC(C)(C)[C@@H]2C(=O)O", "note": "[Cloxacillin sodium (Cloxacap)]", "nuclei count": 110}
{"molecule": "Cc1onc(-c2ccccc2Cl)c1C(=O)N[C@@H]1C(=O)N2[C@@H]1SC(C)(C)[C@@H]2C(=O)O", "note": "[Cloxacillin sodium salt]", "nuclei count": 108}
{"molecule": "N[C@@H](C(=O)N[C@@H]1C(=O)N2C(C(=O)O)=C(Cl)CC[C@H]12)c1ccccc1", "note": "[Loracarbef]", "nuclei count": 105}
{"molecule": "COc1ccc(Cn2ccc3ccc(C(=O)NO)cc32)cc1", "nuclei count": 101}
{"molecule": "C#Cc1cccc(Nc2ncnc3cc(OCCOC)c(OCCOC)cc23)c1", "note": "[Erlotinib]", "nuclei count": 90.5}
{"molecule": "CN[C@@H]1[C@@H](O[C@H]2O[C@H](CO)[C@@H](N)[C@H](O)[C@H]2O)OC2C[C@@H](N)[C@@H](O[C@H]3[C@H](O)[C@@H](O)[C@H](N)C[C@@H]3N)OC2[C@@H]1O", "note": "(some centres undefined) [Apramycin]", "nuclei count": 109}
